Reference: patent US20250361297A1, “ANTI- SIGLEC-15 BINDING MOLECULES AND METHODS OF USE” (ADAPTAM THERAPEUTICS, S.L., priority 2024, published 2025)

B1: ZLA-1243-A01: fully human anti-Siglec-15 IgG1, silenced Fc, phage display; VH SEQ ID NO: 26, VL SEQ ID NO: 27 (antibody, V domains shown)
VH: [sequence of about 100 residues not given]DNEWTPGSFFDYWGQGTLVTVSS
VL: QSALTQPASVSGSPGQSITISCTGTSSDVGGYNYVSWYQQHPGKAPKLMIYDVSNRPSGVSNRFSGSKSGNTASLTISGLQAEDEADYYCSSYTSSSTRVFGGGTKVTVL
modifications: IgG1 silenced Fc; ZLA-1243-A01 VH; ZLA-1243-A01 VL
B2: ZLA-1243-A01-MMAE (conjugate)
VH: [sequence of about 100 residues not given]DNEWTPGSFFDYWGQGTLVTVSS
VL: B1 VL
B3: ZLA-1214-D08: fully human anti-Siglec-15 IgG1, silenced Fc, phage display; VH SEQ ID NO: 42, VL SEQ ID NO: 43 (antibody, V domains shown)
VH: EVQLVQSGAEVKKPGASVKVSCKASGYTFTGYYMHWVRQAPGQGLEWMGRINPNSGGTNYAQKFQGRVTMTRDTSTSTAYMELSRLRSDDTAVYYCARVINDAFDMWGQGTMVTVSS
VL: [sequence of about 100 residues not given]FGQGTKVDIK
modifications: IgG1 silenced Fc; ZLA-1214-D08 VH; ZLA-1214-D08 VL
B4: ZLA-1214-B07: fully human anti-Siglec-15 IgG1, silenced Fc, phage display; VH SEQ ID NO: 50, VL SEQ ID NO: 51 (antibody, V domains shown)
VH: QVQLVQSGAEVKKPGSSVKVSCKASGGTFSSYAISWVRQAPGQGLEWMGGIIPIFGTANYAQKFQGRVTITADESTSTAYMELSSLRSEDTAVYYCARDGGRDGYNPKKILEFDYWGQGTLVTVSS
VL: [sequence of about 100 residues not given]FGPGTKVDIK
modifications: IgG1 silenced Fc; ZLA-1214-B07 VH; ZLA-1214-B07 VL

Assays:
human Siglec-15 [1] = target: T1, human Siglec-15 (Homo sapiens, UniProt Q6ZMC9); test: Titration of full-length IgG1 antibodies on human Siglec-15 (ELISA / flow cytometry on MOLM-13 Siglec-15 cells); assay type: binding; conditions: full-length human IgG1, titrated from 10 μg/ml
T1 construct: expressed in transfected cells
T1 sequence (Q6ZMC9 20-328): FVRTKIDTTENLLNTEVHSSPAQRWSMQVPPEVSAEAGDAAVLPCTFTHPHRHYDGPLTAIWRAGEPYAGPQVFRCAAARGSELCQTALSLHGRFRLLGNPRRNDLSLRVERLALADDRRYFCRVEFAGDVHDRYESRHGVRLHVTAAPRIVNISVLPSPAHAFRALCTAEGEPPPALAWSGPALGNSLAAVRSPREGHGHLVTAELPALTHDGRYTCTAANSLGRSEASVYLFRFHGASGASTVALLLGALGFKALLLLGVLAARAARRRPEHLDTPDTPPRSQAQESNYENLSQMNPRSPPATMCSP
Experimental: The binding efficacy of the converted full-length IgG1 anti-Siglec-15 antibodies was then evaluated using both ELISA and flow cytometry. By immobilizing the antigen and titrating the antibodies starting at a concentration of 10 μg/ml, binding kinetics were determined via ELISA, using an anti-human IgG Fab-specific secondary antibody for detection. Palivizumab served as the negative control in these assays (FIG. 8A). Complementary to the ELISA, flow cytometry assays provided insight into the binding behavior of the antibodies on the cell surface. Here, titration of the antibodies began at the same concentration of 10 μg/ml, using MOLM-13 human Siglec-15 and MOLM-13 wild-type cells as a negative control, with detection performed using an anti-human Fc secondary antibody (FIG. 8B). Clone ZLA-1243-A01 is exemplified in an ELISA binding curve (FIG. 14A) and in a MOLM-13 flow cytometry analysis (FIG. 14B). From these assays, EC50 values were calculated, offering a quantitative measure of the antibodies' affinity towards Siglec-15, and leading to the selection of 7 unique hits (Table 10).
For the ELISA, antigens were immobilized on high-binding plates, and the full-length IgG1 anti-Siglec-15 antibodies were titrated beginning at a concentration of 10 μg/ml. After washing, an anti-human IgG Fab-specific HRP-conjugated secondary antibody was applied for detection. Palivizumab was included as the negative control. Optical densities were measured to generate binding curves from which EC50 values were derived. […] Flow cytometric analysis was conducted, and fluorescence intensity was used to calculate EC50 values, providing a quantitative assessment of the antibodies' cell surface binding efficacy. […] Antibodies were titrated starting at a concentration of 10 μg/ml and detected with an anti-human Fc-specific secondary antibody to detect bound primary antibodies. The half-maximal effective concentration (EC50) was calculated for each antibody to determine its binding affinity to mouse Siglec-15. Results were analyzed and ranked based on the EC50 values.

mouse Siglec-15 = target: T2, mouse Siglec-15 (Mus musculus, UniProt A7E1W8); test: Titration on HEK293T cells expressing mouse Siglec-15 (flow cytometry); assay type: binding; conditions: titrated from 10 μg/ml
T2 construct: HEK293T cells were genetically engineered to express full-length mouse Siglec-15; expressed in transfected cells; host or cells: HEK293T
T2 sequence (A7E1W8 24-342): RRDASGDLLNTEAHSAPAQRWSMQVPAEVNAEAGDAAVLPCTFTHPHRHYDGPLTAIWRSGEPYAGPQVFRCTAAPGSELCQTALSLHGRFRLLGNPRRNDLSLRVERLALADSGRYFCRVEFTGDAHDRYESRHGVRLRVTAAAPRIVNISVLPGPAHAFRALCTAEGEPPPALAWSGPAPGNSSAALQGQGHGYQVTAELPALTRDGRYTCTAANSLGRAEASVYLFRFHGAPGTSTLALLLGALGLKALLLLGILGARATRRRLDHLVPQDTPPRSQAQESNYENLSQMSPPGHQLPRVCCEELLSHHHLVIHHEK
Experimental: Cross-species reactivity and domain-specific binding of the full-length anti-Siglec-15 antibody candidates were evaluated. The antibodies were titrated against HEK293T cells expressing mouse Siglec-15 or HEK293T cells expressing a truncated human Siglec-15 consisting solely of domain 2 (FIG. 9). […] However, the binding to mouse Siglec-15 was evident for all tested antibodies, with EC50 values calculated to rank the affinity of the antibodies.
For the ELISA, antigens were immobilized on high-binding plates, and the full-length IgG1 anti-Siglec-15 antibodies were titrated beginning at a concentration of 10 μg/ml. After washing, an anti-human IgG Fab-specific HRP-conjugated secondary antibody was applied for detection. Palivizumab was included as the negative control. Optical densities were measured to generate binding curves from which EC50 values were derived. In the flow cytometry assay, MOLM-13 cells expressing human Siglec-15 and MOLM-13 wild-type cells (negative control) were incubated with titrated antibodies starting at 10 μg/ml. After incubation, cells were washed and incubated with an anti-human Fc-specific secondary antibody conjugated with a fluorescent marker. Flow cytometric analysis was conducted, and fluorescence intensity was used to calculate EC50 values, providing a quantitative assessment of the antibodies' cell surface binding efficacy. HEK293T cells were genetically engineered to express full-length mouse Siglec-15 and a truncated version of human Siglec-15 encompassing only domain 2. Antibodies were titrated starting at a concentration of 10 μg/ml and detected with an anti-human Fc-specific secondary antibody to detect bound primary antibodies. The half-maximal effective concentration (EC50) was calculated for each antibody to determine its binding affinity to mouse Siglec-15. Results were analyzed and ranked based on the EC50 values.

human Siglec-15 [2] = target: T1, human Siglec-15; test: Competitive flow cytometry assay with benchmark antibodies; assay type: binding
Experimental: Epitope mapping assay by Flow cytometry: Competition with benchmark mouse IgG antibodies: 50,000 cells/well of THP-1 S15 OE were added to a round bottom 96 well plate, and centrifuged at 450×G for 5 minutes, and the supernatant was discarded. Human anti-siglec-15 IgG antibodies (starting at 198 nM, 3-fold serial dilution in staining buffer) were added to 100 μl of staining buffer and cells were resuspended with it and incubated for 40 minutes on ice. 100 μl of staining buffer were added to wells, centrifuged at 450× G for 5 minutes and the supernatants discarded. Benchmark mouse IgG antibodies were diluted at 33.3 nM and cells resuspended in 100 μl of the mix and incubated for 40 minutes on ice. Then, 100 μl of staining buffer were added to wells, centrifuged at 450×G for 5 minutes and the supernatants discarded. The secondary antibody anti-mouse IgG-Alexa647 was prepared at 1:200 dilution in 100 μl of staining buffer and added to each well, and cells were incubated for 40 minutes on ice. Cells were washed with 100 μl of staining buffer and centrifuged at 450×G for 5 minutes to discard the supernatant. Cells were resuspended in 150 μl of staining buffer and acquired in a flow cytometer.

[3] = target: T3, mutant version of Siglec-15 (R143A) (Homo sapiens, UniProt Q6ZMC9, R143A); test: Flow cytometry binding to HEK293T cells expressing mutant Siglec-15 (R143A); conditions: flow cytometry (FIG. 20, FIG. 21)
T3 construct: expressed in transfected cells; host or cells: HEK293T
T3 sequence (Q6ZMC9 20-328 R143A): T1 sequence (Q6ZMC9 20-328) with R124A
Experimental: Assessment of the binding of anti-Siglec-15 antibodies to HEK293T cells expressing full length human Siglec-15, or mutant human Siglec-15 (R143A) or the domain 2 of human Siglec-15 by Flow cytometry: Siglec-15+, Siglec-15+R143A, and Siglec-15 Domain 2 (D2) HEK293T cells were detached using tryple and washed once with PBS, resuspended in 1× flow cytometry buffer (PBS with 1% FBS) at approximately 1-2×10^6 cells/mL. Then, anti-Siglec-15 mAbs were added to the cell suspension at the desired concentration, starting at 10 μg/mL and performing 1/3 dilutions. Cells were incubated with the indicated antibodies for 30-60 minutes at 4° C. in the dark to prevent degradation of the fluorescent signal. After the primary antibody incubation, cells were washed twice with PBS or flow cytometry buffer by centrifuging at 300-500× g for 5 minutes and the pellet resuspended in fresh buffer. The following antibody was added: anti-human IgG-PE at a 1:500 dilution. Cells were incubated with the secondary antibody for 30 minutes at 4° C. in the dark. Finally, cells were washed twice with PBS or flow cytometry buffer to remove any excess secondary antibody and acquired in a flow cytometer.

Siglec-15 positive cells = test: Internalization assay (Zenon pHrodo iFL Green); assay type: cell-based; conditions: kinetics over 1, 2, 4, 16, and 24 hours
Experimental: Internalization assay (Zhenon pHrodo): Sufficient volumes of 4× working solution of anti-Siglec-15 antibodies (10 nM) were prepared in cell culture medium for a total of 25 μL for each well of a 96-well plate. A working solution of Zenon™ pHrodo™ iFL IgG Labeling Reagent was prepared at 30 nM and 25 μL were added to each well. The mix was incubated for 5 minutes at room temperature to allow the labeling complexes to form. 5 mL of suspension cells at 2×10^6 cells/mL in cell culture medium were prepared and 50 μL of cells were added to each well of the 96-well plate containing the mix of anti-Siglec-15 antibody and the Zenon™ labeling reagent. Cells were incubated with the labeling complex for different timepoints (1-24 hours) under standard cell culture conditions. Fluorescence was analyzed by flow cytometry.

[4] = system: osteoclast differentiation; test: Osteoclast differentiation in vitro (TRACP 5b in culture medium); assay type: cell-based; conditions: relative to baseline levels; culture medium at day 7 (FIG. 46)
osteoclast activation = test: Osteoclast activation in vitro (CTX-I in culture medium); assay type: cell-based; conditions: relative to baseline; control odanacatib 1 μM (FIG. 47)
[5] = target: T4, THP-1 cells overexpressing human Siglec-15 (Homo sapiens, UniProt Q6ZMC9); test: Binding of anti-Siglec-15 ADCs to THP-1 S15+ cells (flow cytometry); conditions: relative to Trastuzumab-based ADC negative control
T4 construct: Human full-length Siglec-15 and CD19 genes were synthesized and cloned into the pLV-MSCV lentiviral vector; His; expressed in transfected cells; host or cells: THP-1 (lentiviral overexpression, 'THP-1 S15 OE')
T4 sequence (Q6ZMC9 20-328): T1 sequence (Q6ZMC9 20-328)
Experimental: Binding of anti-Siglec-15 ADCs to THP-1 S15+ cells: 50,000 cells/well of THP-1 S15 OE cells were added to a round bottom 96 well plate, centrifuged at 450×G for 5 minutes and the supernatant discarded. Human anti-siglec-15 IgG ADCs were prepared (starting at 198 nM, 3-fold serial dilution in staining buffer) and the cells were resuspended in 100 μl of ADC. Cells were incubated for 40 minutes on ice and 100 μl of staining buffer were added to each well, followed by centrifugation at 450×G for 5 minutes and supernatants were discarded. The secondary antibody was prepared (anti-human IgG-PE at 1:500 dilution) and added 100 μl to each well. Cells were incubated for 40 minutes on ice and 100 μl of staining buffer were added to each well followed by centrifugation at 450× G for 5 minutes to then discard the supernatant. Cells were resuspended in 150 μl of staining buffer and acquired in a flow cytometer.

human Siglec-15 [6] = target: T1, human Siglec-15; test: Titration of full-length IgG1 antibodies on human Siglec-15 (ELISA / flow cytometry on MOLM-13 Siglec-15 cells); assay type: binding; conditions: phage display clones; Siglec-15 expressing cells

| Molecule | EC50 (ng/mL) hS15 (human Siglec-15 [1]) | EC50 (ng/mL) mS15 (mouse Siglec-15) | inhibition of binding of A2A5C7E8 (benchmark 2) (human Siglec-15 [2]; across all concentrations (FIG. 18D)) | inhibition of binding of 5G12 (benchmark 1) (human Siglec-15 [2]; at concentrations above 10 nM (FIG. 18C)) | binding to HEK293T cells expressing mutated Siglec-15 (R143A) [3] | internalization, fold increase over isotype control (Siglec-15 positive cells) | effect on osteoclast differentiation (TRACP 5b) [4] | effect on osteoclast activation (CTX-I) (osteoclast activation) | binding capacity to THP-1 cells overexpressing human Siglec-15 [5] | cell binding in validation screenings via flow cytometry (human Siglec-15 [6]) |
| --- | --- | --- | --- | --- | --- | --- | --- | --- | --- | --- |
| B1 | 180.6 ng/mL | 75.28 ng/mL | outperformed 5G12 | outperformed A2A5C7E8 | demonstrated binding | approximately 2 fold | did not significantly affect | did not significantly affect | – | – |
| B2 | – | – | – | – | – | – | – | – | increased binding capacity | – |
| B3 | 105.6 ng/mL | 102.9 ng/mL | – | – | – | – | – | – | – | confirmed as cell binders |
| B4 | 132.6 ng/mL | 101.8 ng/mL | – | – | – | – | – | – | – | confirmed as cell binders |

Positions count from the first letter of the chain named.
